Test results published in the supplement of paper PMC4967469.

Compound: COc1ncc(-c2ccc3nccc(-c4ccnnc4)c3c2)cc1NS(=O)(=O)c1ccc(F)cc1F [GSK2126458]
Experiment: Viability of human cancer cell lines after 72 h of drug (GDSC screen)
Conditions: top dose inferred
Protocol: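 Human cancer cell lines in 384-well plates, medium with 10% serum, drug for 72 h over a 256-fold dose range (nine 2-fold or five 4-fold steps up to the top dose). Adherent lines were fixed and stained with the nucleic acid dye Syto60, suspension lines read with resazurin; signal relative to control wells, capped at 0 and 100%. One two-parameter sigmoid per drug and line, fitted in a mixed model over all curves with the slope shared within a line.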

Cell Line	AUC	IC50
H3118 (head and neck, adherent, top dose 0.128 µM)	0.466	6.42 nM
H3255 (lung adenocarcinoma, adherent, top dose 0.128 µM)	0.837	110 nM
H-EMC-SS (chondrosarcoma, adherent, top dose 0.128 µM)	0.739	48.1 nM
HA7-RCC (kidney, adherent, top dose 0.128 µM)	0.813	78.1 nM
HAL-01 (lymphoblastic leukaemia, suspension, top dose 0.128 µM)	0.107	0.526 nM
HARA (lung squamous cell carcinoma, adherent, top dose 0.128 µM)	0.501	8.03 nM
HC-1 (hairy cell leukaemia, suspension, top dose 0.128 µM)	0.499	7.95 nM
HCC38 (breast, adherent, top dose 0.128 µM)	0.786	60.1 nM
HCC70 (breast, adherent, top dose 0.128 µM)	0.662	22.4 nM
HCC1143 (breast, adherent, top dose 0.128 µM)	0.792	86.1 nM
HCC1187 (breast, suspension, top dose 0.128 µM)	0.712	30.7 nM
HCC1395 (breast, adherent, top dose 1.024 µM)	0.915	> 1020 nM
HCC1419 (breast, adherent, top dose 0.128 µM)	0.671	29.6 nM
HCC1428 (breast, adherent, top dose 0.128 µM)	0.914	> 128 nM
HCC1500 (breast, adherent, top dose 0.128 µM)	0.76	46.7 nM
HCC1569 (breast, adherent, top dose 0.128 µM)	0.502	8.12 nM
HCC1599 (breast, suspension, top dose 1.024 µM)	0.318	18.3 nM
HCC1806 (breast, adherent, top dose 0.128 µM)	0.846	82 nM
HCC1937 (breast, adherent, top dose 0.128 µM)	0.786	64.5 nM
HCC1954 (breast, adherent, top dose 0.128 µM)	0.448	5.65 nM

Cell Line	AUC	IC50
HCC2157 (breast, suspension, top dose 0.128 µM)	0.681	26.3 nM
HCC2218 (breast, suspension, top dose 1.024 µM)	0.263	11.1 nM
HCC2998 (large intestine, adherent, top dose 1.024 µM)	0.72	263 nM
HCC-15 (lung squamous cell carcinoma, adherent, top dose 0.128 µM)	0.886	> 128 nM
HCC-33 (small cell lung carcinoma, adherent, top dose 0.128 µM)	0.832	83.3 nM
HCC-44 (lung adenocarcinoma, adherent, top dose 0.128 µM)	0.725	34.2 nM
HCC-56 (large intestine, adherent, top dose 0.128 µM)	0.824	78.6 nM
HCC-78 (lung adenocarcinoma, adherent, top dose 0.128 µM)	0.564	12.3 nM
HCC-827 (lung adenocarcinoma, adherent, top dose 0.128 µM)	0.738	43.2 nM
HCE-4 (oesophagus, adherent, top dose 0.128 µM)	0.984	> 128 nM
HCT-15 (large intestine, adherent, top dose 0.128 µM)	0.674	25.2 nM
HD-MY-Z (Hodgkin lymphoma, adherent, top dose 0.128 µM)	0.707	30.9 nM
HDLM-2 (Hodgkin lymphoma, suspension, top dose 0.128 µM)	0.954	> 128 nM
HDQ-P1 (breast, adherent, top dose 0.128 µM)	0.825	97.2 nM
HEC-1 (endometrium, adherent, top dose 0.128 µM)	0.932	> 128 nM
HEL (acute myeloid leukaemia, semi-adherent, top dose 0.128 µM)	0.801	50.5 nM
HGC-27 (stomach, adherent, top dose 0.128 µM)	0.398	4.39 nM
HH (T-cell leukaemia, suspension, top dose 0.128 µM)	0.384	3.46 nM
HL-60 (acute myeloid leukaemia, suspension, top dose 0.128 µM)	0.395	4.26 nM
HLE (liver, adherent, top dose 0.128 µM)	0.988	> 128 nM

Cell Line	AUC	IC50
HMV-II (melanoma, adherent, top dose 0.128 µM)	0.802	80.3 nM
HN (head and neck, adherent, top dose 0.128 µM)	0.944	> 128 nM
HO-1-N-1 (head and neck, adherent, top dose 0.128 µM)	0.93	> 128 nM
HO-1-u-1 (head and neck, adherent, top dose 0.128 µM)	0.886	> 128 nM
HOP-62 (lung adenocarcinoma, adherent, top dose 0.128 µM)	0.854	100 nM
HOP-92 (large cell lung carcinoma, adherent, top dose 0.128 µM)	0.985	> 128 nM
HOS (osteosarcoma, adherent, top dose 0.128 µM)	0.992	> 128 nM
HPAC (pancreas, adherent, top dose 0.128 µM)	0.41	4.11 nM
HPAF-II (pancreas, adherent, top dose 0.128 µM)	0.505	8.32 nM
HSC-2 (head and neck, adherent, top dose 0.128 µM)	0.833	73.9 nM
HSC-3 (head and neck, adherent, top dose 0.128 µM)	0.914	> 128 nM
HSC-4 (head and neck, adherent, top dose 0.128 µM)	0.746	52.4 nM
HSC-39 (stomach, suspension, top dose 0.128 µM)	0.802	52.8 nM
HT55 (large intestine, adherent, top dose 0.128 µM)	0.989	> 128 nM
HT (B-cell lymphoma, suspension, top dose 0.128 µM)	0.557	11.3 nM
HT-3 (cervix, adherent, top dose 0.128 µM)	0.89	> 128 nM
HT-29 (large intestine, adherent, top dose 0.128 µM)	0.585	13.6 nM
HT-115 (large intestine, adherent, top dose 0.128 µM)	0.969	> 128 nM
HT-144 (melanoma, adherent, top dose 0.128 µM)	0.974	> 128 nM

The IC50 comes from the fitted curve, where viability falls to half of the control; a fit beyond the top or the lowest dose is shown as a bound at that dose. For AUC the same curve is integrated over the 256-fold range of doses and scaled to a fraction; values near 1 show little effect. A top dose marked as inferred is not printed in the source and was worked back from the curve model.
